Measured values from PubChem BioAssay AID485344 (National Center for Advancing Translational Sciences (NCATS), 2010).
Among all 340,000 compounds or so, about 6,900 (2%) were called active. Cut-off read from the data, not from the text of the source: active = inhibition above about 30%; inactive = below that, where a call was filed. The entries are a selection whose mix differs from that of the whole data set. The source gives no active or inactive call for entries shown without one.

molecular target: D(2) dopamine receptor (Homo sapiens) (UniProt P14416); test: HTS Assay for Allosteric Antagonists of the Human D2 Dopamine Receptor: Primary Screen for Antagonists; details: HEK293 TREx D2 cells, calcium flux, dopamine EC80; at 10 µM; stronger effect = higher value; note: 0% is about no effect
In short: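 Compounds are added to dye-loaded, induced HEK293 T-REx cells coupled to calcium release via D2; after a 3 min kinetic read an EC80 dopamine stimulus is given and fluorescence is recorded for 3 more min.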

Sequence of UniProt P14416 (P14416 whole entry, looked up): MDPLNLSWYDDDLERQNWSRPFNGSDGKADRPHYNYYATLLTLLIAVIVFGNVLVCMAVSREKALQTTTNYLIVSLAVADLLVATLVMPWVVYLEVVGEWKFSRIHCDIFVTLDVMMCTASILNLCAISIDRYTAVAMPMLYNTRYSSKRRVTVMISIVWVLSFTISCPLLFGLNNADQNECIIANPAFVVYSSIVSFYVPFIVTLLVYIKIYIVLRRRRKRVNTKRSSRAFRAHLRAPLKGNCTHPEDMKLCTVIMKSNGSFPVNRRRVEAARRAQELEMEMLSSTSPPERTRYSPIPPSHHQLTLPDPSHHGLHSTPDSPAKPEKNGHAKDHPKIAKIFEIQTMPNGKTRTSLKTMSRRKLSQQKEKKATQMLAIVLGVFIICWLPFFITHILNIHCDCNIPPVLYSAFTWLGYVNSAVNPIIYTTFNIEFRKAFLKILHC

Row | Compound | inhibition
1 | COc1ccc(-c2c(C)nn3c(-c4ccccc4)cc(-c4ccccc4)nc23)cc1OC | 14.1%
2 | COc1ccc(CCN2C(=O)c3[nH]nc(-c4ccccc4O)c3C2c2ccc(O)c(OC)c2)cc1 (stereo unspecified) | 11%
3 | COC(=O)c1ccc(NC(=O)CCNS(=O)(=O)c2cccc3nsnc23)cc1 | 2.95%
4 | O=c1cc(-c2c(F)c(F)c(F)c(F)c2F)oc2c(F)c(F)c(F)c(F)c12 | active: 56.5%
5 | O=C(CSc1nc2c([nH]c3ccccc32)c(=O)n1-c1ccc(F)cc1)N1CCCc2ccccc21 | 4.7%
6 | CCOC(=O)Cn1c(=O)n(C2CCCCC2)c2nc(-c3ccccc3Cl)nc(C(N)=O)c21 | 10.2%
7 | COc1cc(NC(=O)c2cc(C3CC3)nc3c2c(C)nn3-c2ccc(C)cc2)cc(OC)c1 | 3.75%
8 | Cc1cccc(C)c1OCc1nc2c3cnn(-c4ccccc4Br)c3ncn2n1 | -9.37%
9 | CC(O)CNCCOc1ccccc1-c1ccccc1 (stereo unspecified) | active: 57.8%
10 | Cc1cccc(CNC(=O)c2ccc3nc(-c4ccccc4)c(-c4ccccc4)nc3c2)c1 | -8.66%
11 | Cc1c(C(=O)NCc2ccccc2Cl)cccc1-n1cnc2cccnc21 | 1.74%
12 | CCC1(c2ccccc2)C(=O)NCNC1=O | active: 33.1%
13 | Cc1cccc(NC(=O)Cn2c(=O)n(CCc3ccccc3)c(=O)c3sc4ccccc4c32)c1 | -5.02%
14 | O=C(Cn1c(=O)n(-c2ccccc2)c(=O)c2c3c(sc21)CCCC3)Nc1cccc(F)c1 | -8.1%
15 | COc1cccc(Cc2nc3ccccc3nc2SCC(=O)Nc2ccccc2F)c1 | -5.49%
16 | CN(C)c1ccc(CNC(=O)c2ccc(NC(=O)c3nsc4ccccc34)cc2)cc1 | 2.82%
17 | CCn1c(=O)cc(OCC(=O)Nc2cc(OC)c(OC)c(OC)c2)c2ccccc21 | -2.86%
18 | COCCNC(=O)CSc1nc2ccccc2nc1Cc1ccc(C)cc1 | -16.7%
19 | CCc1ccc(S(=O)(=O)c2c(C(=O)c3ccc(C)c(C)c3)cnc3ccccc23)cc1 | -0.554%
20 | CCOc1ccc(CNC(=O)c2ccc3nc(CC)c(CC)nc3c2)cc1OC | 19.8%
21 | COc1cccc(N2CCN(c3ccc4nnc(CCC(=O)O)n4n3)CC2)c1 | 10.9%
22 | Cn1cnc(S(=O)(=O)N2CCCC(C(=O)Nc3cccc(C#N)c3)C2)c1 (stereo unspecified) | 10.2%
23 | Cc1ccc(CNCc2c(C(=O)O)c(C)n(Cc3ccc(C)cc3)c2C)cc1 | 13.6%
24 | O=C(Nc1c(C(=O)c2ccc(F)cc2)oc2ccccc12)c1cc(-c2ccccc2)on1 | 7.19%

Row | Compound | inhibition
25 | COc1ccc(NC(=O)N(Cc2nnc3n2CCCCC3)c2ccc(OC)c(Cl)c2)cc1 | -18.2%
26 | CC(C)(C)NC(=O)c1ccc2c(c1)N(CC(=O)NC1CCCC1)C(=O)C(C)(C)O2 | active: 53.1%
27 | CCN(CC)S(=O)(=O)c1nnc(NC(=O)COc2cccc(C)c2)s1 | -17.9%
28 | Cc1ccc(C)c(N(C)C(=O)C2CCN(c3ncnc4c3nc3n4CCCCC3)CC2)c1 | 6.68%
29 | COc1ccc(CCNC(=O)CCCCCn2c(SCC(N)=O)nc3cc4c(cc3c2=O)OCO4)cc1OC | -17.6%
30 | CCN(CC)S(=O)(=O)c1ccc2c(c1)N(CC(=O)Nc1ccc(F)cc1)C(=O)CO2 | 16.1%
31 | Cc1ccc(S(=O)(=O)N2CCCc3cc(NC(=O)c4ccccc4Cl)ccc32)cc1 | -2.8%
32 | O=C(c1ccc(Oc2ccccc2)cc1)c1nc2c(n1O)CCCC2 | active: 31.1%
33 | CCOC(=O)CC(NC(=O)Cn1nnc(-c2ccc(C(F)(F)F)cc2)n1)c1ccc(C)cc1 (stereo unspecified) | 10.3%
34 | CCCOc1cccc(C(=O)NCCNC(=O)c2ccco2)c1 | active: 57%
35 | O=C(NCC(c1cccnc1)N1CCN(Cc2ccccc2)CC1)C(=O)Nc1cccc(F)c1 (stereo unspecified) | 21.5%
36 | Cc1ccc(Cn2c(=O)n(CC3CCC(C(=O)N4CCOCC4)CC3)c(=O)c3sccc32)cc1 (stereo unspecified) | 1.48%
37 | CNC(=O)c1nnc(Cc2ccc(F)cc2)o1 | active: 58.1%
38 | COc1cccc(-c2nc3c(C#N)c[nH]n3c2NC2CCCCC2)c1OC | 8.9%
39 | CC(NC(=O)c1sc2ncccc2c1-n1cccc1)c1ccccc1 (stereo unspecified) | 5.12%
40 | CCSc1nnc(NC(=O)c2cc(C)on2)s1 | active: 55.6%
41 | CCC(C)(C)NC(=O)CN(C(=O)CCC(=O)Nc1nccs1)c1ccccc1C | active: 39%
42 | COC(=O)c1cc2oc3ccccc3c2n1Cc1c(F)cccc1Cl | 7.26%
43 | COc1ccc2nc(N3CCN(C(=O)C4CC4)CC3)sc2c1 | -18.4%
44 | Cc1ccc(C(=O)NCCc2csc(C)n2)cc1 | active: 42.7%
45 | CCc1cccc(NC(=O)CN2CCCN(Cc3cccc(C)c3)S2(=O)=O)c1 | 14%
46 | Cc1ccc(Cl)cc1N(C)C(=O)c1cnc(N2CCOCC2)c2ccccc12 | -12.7%
47 | COc1ccc(N2CCN(C(=O)c3ccc4nc(N5CCC(C)CC5)sc4c3)CC2)cc1 | -7.56%
48 | Cc1ccc2occ(CC(=O)N(Cc3ccc(N(C)C)cc3)C3CCS(=O)(=O)C3)c2c1 (stereo unspecified) | -10.1%

Row | Compound | inhibition
49 | CCOc1ccc(CNC(=O)CCC(=O)N2CCSc3ccccc32)cc1 | 6.81%
50 | OC(CSc1c(Cl)cccc1Cl)CN1CCN(c2ccccc2F)CC1 (stereo unspecified) | active: 65.3%
51 | O=C(NCCS(=O)(=O)N1CCN(c2ccc(F)cc2)CC1)c1cc(=O)c2ccccc2o1 | 23.8%
52 | COc1ccccc1N1CCN(S(=O)(=O)c2cc3[nH]c(=O)c(=O)[nH]c3cc2C)CC1 | 12.3%
53 | CSc1cccc(Nc2cc(C(=O)NCCCN(Cc3ccccc3)C(C)C)c3ccccc3n2)c1 | 13.6%
54 | Cc1ccc(CCNc2ncnc3onc(C)c23)cc1 | -4.99%
55 | Cc1ccc(C)c(NC(=O)C(Cc2ccccc2)N2Cc3ccccc3C2=O)c1 (stereo unspecified) | 21.7%
56 | Cc1ccccc1Nc1cc(C(=O)NC2CCCCC2)c2ccccc2n1 | -8.28%
57 | Fc1ccc(Nc2ncnc3c2nc2n3CCCC2)cc1 | -10.4%
58 | Cc1c(NC(=O)c2ccccc2)cc(C(C)C)c(O)c1S(=O)(=O)c1ccc(Cl)cc1 | 4.81%
59 | CCOCCCn1c(SCC(=O)NCCCOC)nc2c(sc3ccccc32)c1=O | -22.1%
60 | CCOCCCNC(=O)c1c[nH]c2ccc(S(=O)(=O)Nc3cccc(Cl)c3C)cc2c1=O | 11.2%
61 | CCOC(=O)N1CCc2c(sc3c2c(=O)n(-c2ccc(Cl)cc2)c(=O)n3Cc2cccc(C)c2)C1 | -4.71%
62 | O=C(C1COc2ccccc2O1)N1CCc2ccccc21 (stereo unspecified) | active: 35.3%
63 | Cc1cc2c(cc1S(=O)(=O)N(C)CC(=O)Nc1cccc(C#N)c1)OCC(=O)N2 | -14.3%
64 | CC1=Nc2cc(C(=O)NC3CCCC3)ccc2Sc2ccc(Br)cc21 | 6.53%
65 | COCCCNC(=O)C1CCCN(S(=O)(=O)c2ccc3c(c2)oc(=O)n3C)C1 (stereo unspecified) | -4.35%
66 | CCOC(=O)c1cccc(NC(=O)CCn2nc(C)c3c(C)n(-c4ccccc4)nc3c2=O)c1 | -12.8%
67 | NS(=O)(=O)c1ccc(-c2ccc(/C=C3\SC(=O)NC3=O)o2)cc1 | active: 47.3%
68 | CCN(CC)c1ccc(NC(=O)CN2CCN(CC(=O)Nc3ccccc3OC)CC2)cc1 | 18.7%
69 | COc1ccccc1CNC(=O)c1ccc(CN2CC(=O)N3CCCCC3C2=O)cc1 (stereo unspecified) | 16%
70 | Cc1ccc(C)c(NC(=O)N2CCC(N3CCN(Cc4ccc(F)cc4)C(=O)C3=O)CC2)c1 | 1.09%
71 | COc1ccccc1C(=O)NCC1(N2CCN(C)CC2)CCCCC1 | 22.5%
72 | CCNC(=O)CC1C(=O)N(c2ccc(F)cc2)C(=O)N1Cc1ccc(OC)c(OC)c1 (stereo unspecified) | 9.82%

Row | Compound | inhibition
73 | COc1ccccc1/C=C/CN1CCCC(CO)(CCc2ccccc2)C1 (stereo unspecified) | active: 71.4%
74 | Cc1c(C(=O)Nc2ccc(S(=O)(=O)Nc3ncccn3)cc2)oc2ccccc12 | active: 46.1%
75 | Cc1ccc(C(=O)N2CCN(c3cccc(Cl)c3)CC2)cc1-n1c(C)nc2cccnc21 | 2.01%
76 | CS(=O)(=O)c1ccc(Cl)c(S(=O)(=O)NCc2ccccc2)c1 | active: 35%
77 | O=C(c1ccc2c(c1)N(Cc1cccc(Cl)c1)C(=O)c1ccccc1S2(=O)=O)N1CCc2ccccc21 | 14%
78 | CCc1ccccc1N(CC)C(=O)C(=O)Nc1ccc2nc3n(c(=O)c2c1)CCCCC3 | 0.738%
79 | COc1cc(Cl)c(C)cc1NC(=O)C1CCCN(c2ncnc3onc(-c4ccc(F)cc4)c23)C1 (stereo unspecified) | 4.54%
80 | O=C(Nc1cccc(-n2cnnn2)c1)c1ccc(C(F)(F)F)cc1 | active: 57.3%
81 | Cn1c(COc2ccccc2C(C)(C)C)nc2ccccc21 | -8.5%
82 | COc1ccc(S(=O)(=O)c2cc3cc(C(C)(C)C)cc(O)c3oc2=O)cc1 | 24.1%
83 | CCCCCn1c(=N)c(S(=O)(=O)c2ccc(C)cc2)cc2c(=O)n3cc(C)ccc3nc21 | -1.6%
84 | CC(C)(CC(=O)NCc1ccc(Cl)cc1Cl)CC1=NS(=O)(=O)c2ccccc2N1 | -11.1%
85 | COC(=O)c1ccc(NS(=O)(=O)c2ccc3c(c2)n(C)c(=O)c(=O)n3C)cc1 | 4.92%
86 | CCOC(=O)c1ccc(CN(Cc2ccc(F)cc2)S(=O)(=O)c2ccc(F)c(C(=O)Nc3ccccc3C(F)(F)F)c2)cc1 | -25.5%
87 | Cn1c2c(c(=O)n(C)c1=O)C(c1ccccc1C(F)(F)F)CC(=O)N2 (stereo unspecified) | 1.4%
88 | Cc1ccn2c(=O)cc(COc3ccc(NC(=O)C(C)(C)C)cc3)nc2c1 | 7.61%
89 | COC(=O)c1c(NC(=O)C(=O)NCC2CCCO2)sc2c1CC(C)(C)OC2 (stereo unspecified) | active: 36.4%
90 | CC(=O)N1c2ccc(S(=O)(=O)N3CCCC3C(=O)Nc3ccc(C)cc3)cc2CC1C (stereo unspecified) | active: 36.7%
91 | COC(=O)c1ccccc1NC(=O)CSc1n[nH]c(C)n1 | 0.303%
92 | CCS(=O)(=O)N1CCc2cc(C(=O)NC(C)c3ccccc3)ccc21 (stereo unspecified) | 13.6%
93 | CC(C)Oc1ccc(CNC(=O)CN2C(=O)c3cccnc3Oc3ccc(Cl)cc32)cc1 | -1.69%
94 | O=c1c2sc3ccccc3c2n(Cc2cccc(C(F)(F)F)c2)c(=O)n1-c1ccccc1 | -18.4%
95 | COc1ccc(-n2c(SC)nc3sc4c(c3c2=O)CCN(C(C)=O)C4)cc1 | 15.3%
96 | COc1ccc(CNC(=O)C2CCN(C(=O)c3cnn(-c4ccccc4)c3-n3cccc3)CC2)cc1 | 3.22%
